Measured values: PubChem BioAssay AID1458 (National Center for Advancing Translational Sciences (NCATS), 2008)
The campaign covered roughly 210,000 compounds. About 5,900 (2.8%) were called active. The inconclusive results got no clear call from the source; some entries with a clear call stand among them for comparison. Calls come from the whole dose curve; as a rule, active = well fitted activation curve with a large enough effect; inconclusive = small, poorly fitted or top-dose-only effect; inactive = no such curve, though single readings can be large or run the other way. Potencies of inconclusive entries are doubtful fits and often do not repeat.

experiment: qHTS Assay for Enhancers of SMN2 Splice Variant Expression; conditions: HEK293 SMN2-luciferase splicing reporter, luminescence, 30-36 h; activity change, positive = activation: at 46.1 µM (top of the series); note: nearly all actives have a fitted effect of over 55% in size; for activity change, positive = activation: % of control where 0% means no effect
Summary of the method: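 qHTS luciferase splicing reporter: luminescence rises when SMN2 exon 7 is included in transfected HEK293 cells. Compound exposure lasted 30-36 h at 37C, with 4.5 mM final sodium butyrate as control, followed by a ONE-Glo read.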
Potency is the fitted concentration of half-maximal effect; tags give direction and shape of the fitted curve.

Row | Structure (SMILES) | Potency | activity change, positive = activation
1 | Cn1cccc1CNC(=O)Nc1ccc(Cl)c(Cl)c1 | inconclusive: 22.4 µM [activator, single point] | –
2 | O=C(Nc1ccc(N2CCN(C(=O)c3ccco3)CC2)c(Cl)c1)c1cc2ccccc2o1 | inactive | –
3 | Cc1cccc(C2c3[nH]c4ccccc4c3CCN2Cc2cccn2-c2ncccn2)c1 (stereo unspecified) | active: 20 µM | –
4 | O=C(CCS(=O)(=O)c1ccccc1)N1CCOCC1 | inconclusive: 35.5 µM [activator, single point] | –
5 | COc1cccc(C2CC(c3ccccc3Cl)Nc3nc(N)nn32)c1 (stereo unspecified) | inconclusive: 5.62 µM [activator, single point] | –
6 | O=C(CSc1nnc2c(n1)[nH]c1ccc(F)cc12)OCc1ccccc1 | inconclusive: 0.794 µM [activator, full curve] | –
7 | CCSc1nc2sc3c(c2c(=O)[nH]1)CCCC3 | inconclusive: 35.5 µM [activator, single point] | –
8 | Cc1ccc(C(C)C)c(OCC(=O)Nc2ccc(S(=O)(=O)Nc3onc(C)c3C)cc2)c1 | inactive | –
9 | CC(NC(=O)c1ccc(C(C)(C)C)cc1)C(=O)O (stereo unspecified) | inconclusive: 35.5 µM [activator, single point] | –
10 | Cc1ccccc1-c1noc(C(C)NC(=O)c2ccco2)n1 (stereo unspecified) | inactive | –
11 | CCC(=O)N1CCc2cc(S(=O)(=O)NCCC(=O)NCc3ccccc3Cl)ccc21 | inactive | –
12 | Fc1cccc(F)c1/C=N/Nc1ccccn1 | inconclusive: 0.0224 µM [activator, full curve, poor fit] | –
13 | COc1ccccc1CNC(=O)C(CC(C)C)NS(=O)(=O)c1ccc2c(c1)oc(=O)n2C (stereo unspecified) | inconclusive: 5.62 µM [activator, single point] | –
14 | COc1cc(CN(CC2CCCO2)C(=O)c2ccc(F)cc2)cc(OC)c1OC (stereo unspecified) | inactive | –
15 | Cc1nn(-c2ccccn2)c2c1-c1nc(N)ncc1CC2 | inconclusive: 35.5 µM [activator, single point] | –
16 | Cc1ccc(/C=N/NC(=O)Cc2cccn2C)s1 | inconclusive: 5.01 µM [activator, full curve, poor fit] | –
17 | Oc1cccc(-c2nc3ccc4ccccc4c3c3c2CCC3)c1 | inconclusive: 31.6 µM [activator, single point] | –
18 | CC(C)(C)c1ccc(C(=O)Nc2ccc(C=C(C#N)C#N)cc2)cc1 | inconclusive: 14.1 µM [activator, partial curve] | –
19 | CCOC(=O)c1nn(-c2ccc(C)cc2)cc1O | inconclusive: 31.6 µM [activator, single point] | –
20 | CCOc1ccc2ccccc2c1C1NC(=S)N(C)C(C)=C1C(=O)OC (stereo unspecified) | inconclusive: 0.0056 µM [activator, full curve, poor fit] | –
21 | CCSc1nnc(NC(=O)c2ccc(Br)s2)s1 | inconclusive: 22.4 µM [activator, partial curve, poor fit] | –
22 | O=C(N/N=C/c1cc2c(cc1Br)OCO2)c1cccnc1 | inconclusive: 35.5 µM [activator, single point] | –
23 | N#C/C(=C(/O)COc1ccc(Cl)cc1)c1nc2ccccc2s1 | inactive | –
24 | O=C(CCC(=O)c1ccc[nH]1)c1ccc(Cl)cc1 | inconclusive: 25.1 µM [activator, single point] | –

Row | Structure (SMILES) | Potency | activity change, positive = activation
25 | O=C(O)c1ccccc1NC(=S)NC(=O)c1sc2ccccc2c1Cl | inactive | –
26 | Cc1ccc(-c2nnc(SCc3ccccc3F)o2)cc1 | active: 11.2 µM | –
27 | Cn1cnnc1SCC(=O)Nc1ccc(OCc2ccccc2)cc1 | inconclusive: 28.2 µM [activator, partial curve] | –
28 | Cc1ccc(CNC(=O)CSc2ncccn2)cc1 | inconclusive: 39.8 µM [activator, partial curve, poor fit] | –
29 | O=C(CN1CC(=O)Nc2ccccc21)Nc1ccc(F)c(F)c1 | inconclusive: 35.5 µM [activator, single point] | –
30 | CCOc1ccc(C(=O)Nc2cccc(SC)c2)cc1 | inconclusive: 35.5 µM [activator, single point] | –
31 | Cc1cccc(OCc2nc(-c3ccccn3)n[nH]2)c1 | inactive | –
32 | O=C1CCC(=O)N1OCCOc1ccc2c(c1)CCC2 | inconclusive: 0.0071 µM [activator, partial curve, poor fit] | –
33 | C/C(=N/NC(=O)c1ccccn1)c1ccco1 | inconclusive: 2.51 µM [activator, full curve, poor fit] | –
34 | C[N+](C)([O-])CCC=C1c2ccccc2CCc2ccccc21 | – | inactive: -9.09% [at 9.22 µM]
35 | C=CCN1CN(S(=O)(=O)c2cccs2)c2nc3ccccc3nc21 | inconclusive: 39.8 µM [activator, partial curve, poor fit] | –
36 | CCSc1ncc(/C=N/Nc2ccc(F)cc2)n1C | active: 11.2 µM | –
37 | Cc1cc(C(=O)CSc2nnnn2C)c(C)n1CCc1ccc(F)cc1 | inactive | –
38 | COc1ccc(NC(=O)c2ccccc2)c([N+](=O)[O-])c1 | inconclusive: 28.2 µM [activator, single point] | –
39 | COc1ccccc1C(=O)Nc1cc2ccccc2oc1=O | inconclusive: 10 µM [activator, partial curve] | –
40 | CCCn1c(SCC(N)=O)nnc1C(C)C | inconclusive: 1.78 µM [activator, single point] | –
41 | Cc1nnc(OCc2nc3ccccc3n2C)c2ccccc12 | inconclusive: 0.126 µM [activator, full curve, poor fit] | –
42 | COc1cccc(CNc2ccc3nc(-c4ccc(N)cc4)c(OC)n3n2)c1 | inconclusive: 35.5 µM [activator, single point] | –
43 | CCCn1c(NCc2ccccn2)nc2ccccc21 | inactive | –
44 | Fc1ccc(N/N=C/c2ccncc2)c(F)c1 | inconclusive: 14.1 µM [activator, partial curve, poor fit] | –
45 | CC1=C(C(=O)OC(C)C)C(c2cccs2)N2C(=O)CCSC2=N1 (stereo unspecified) | inconclusive: 6.31 µM [activator, single point] | –
46 | COc1cccc(-c2nnc(SCC(=O)Nc3cc(C)on3)o2)c1 | inconclusive: 11.2 µM [activator, single point] | –
47 | COc1ccccc1Cn1c(/C=C/c2ccccc2)nc2ccccc21 | inconclusive: 11.2 µM [activator, partial curve, poor fit] | –
48 | CC(O)c1cc2c(cc1NC(=O)c1cnn3c1NC(c1ccco1)CC3C(F)(F)F)OCO2 (stereo unspecified) | inconclusive: 28.2 µM [activator, partial curve, poor fit] | –

Row | Structure (SMILES) | Potency | activity change, positive = activation
49 | CCc1ccccc1NC1=NCC(=O)N1Cc1ccc2c(c1)OCO2 | inactive | –
50 | O=C(COC(=O)c1cc(=O)[nH]c2ccccc12)Nc1nc(-c2ccccc2)cs1 | inconclusive: 22.4 µM [activator, partial curve, poor fit] | –
51 | COc1ccc(CSc2nc3ccncc3n2CC(=O)Nc2ccc(C)c(F)c2)cc1 | inconclusive: 5.62 µM [activator, partial curve] | –
52 | CCS(=O)(=O)c1ccc2oc(Nc3ccccc3C)nc2c1 | inconclusive: 15.8 µM [activator, single point] | –
53 | CCOC(=O)c1sc(NC(=O)c2ccc(OC(C)=O)cc2)nc1C | inconclusive: 17.8 µM [activator, single point] | –
54 | Cc1ccc2nsnc2c1S(=O)(=O)N(Cc1ccco1)Cc1cc2ccc(C)c(C)c2[nH]c1=O | inconclusive: 0.0631 µM [activator, full curve, poor fit] | –
55 | O=c1c2c3c(sc2nc2n1CCCCC2)CCCC3 | inconclusive: 25.1 µM [activator, partial curve, poor fit] | –
56 | CCOc1ccc(-c2nc(=S)[nH][nH]2)cc1 | inconclusive: 12.6 µM [activator, partial curve] | –
57 | CSc1nc(Cl)cc(Nc2ccc(O)cc2)n1 | inconclusive: 31.6 µM [activator, single point] | –
58 | Cc1ccc(N/N=C(\Cc2nc3ccccc3[nH]2)c2ccccc2)cc1 | inconclusive: 12.6 µM [activator, single point] | –
59 | COc1nn(CC(=O)N2N=C(C)CC2(O)C(F)F)cc1[N+](=O)[O-] (stereo unspecified) | inconclusive: 0.0282 µM [activator, full curve, poor fit] | –
60 | CCOc1ccc(NC(N)=O)cc1 | inactive | –
61 | CC(C)N=C1NN=C(c2ccc(Cl)c(Cl)c2)CS1 | active: 5.01 µM | –
62 | CC(=O)c1ccc(NC(=O)CCOc2ccccc2)cc1 | inconclusive: 14.1 µM [activator, partial curve] | –
63 | COc1ccc(NC(=O)CSc2nnc(-c3ccccc3)n2Cc2ccco2)c(OC)c1 | inactive | –
64 | Cc1onc(-c2ccccc2Cl)c1C(=O)NC(=S)NCc1cccnc1 | inactive | –
65 | CC(C)c1ccc2c(c1)C(c1ccc(N3CCOCC3)cc1)=NNC(c1cccs1)=N2 | inactive | –
66 | COc1ccc(-c2cc(-c3ccccc3)nc(N3CCCC3)n2)cc1OC | inconclusive: 0.224 µM [activator, full curve] | –
67 | C[n+]1cc[nH]c1SCC(=O)c1ccc(Cl)cc1 | inconclusive: 12.6 µM [activator, single point] | –
68 | CC(C)c1ccc(/C=N/NC(=O)c2nnn(-c3nonc3N)c2CSC2=NCCS2)cc1 | inactive | –
69 | C/C(=N\Nc1ccc([N+](=O)[O-])cc1)c1ccc(N)cc1 | inconclusive: 2 µM [activator, partial curve] | –
70 | CC(C)Oc1ccc(C(=O)Nc2nnc(SCC(=O)N3CCOCC3)s2)cc1 | active: 1.41 µM | –
71 | Cc1csc(NC(=O)CCN2C(=O)c3ccccc3S2(=O)=O)n1 | inconclusive: 0.447 µM [activator, full curve, poor fit] | –
